The text below walks through data of publication PMC4336329 (PLoS ONE, 2015).

Out of some 310,000 compounds screened, about 14,000 (4.5%) showed an effect of 50% or more. Effects have a minus sign here. Some of the results follow.
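Also: peak tail current of the secondary pulse compared with the same well before compound.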

The target in the assay is human ether-à-go-go-related gene (hERG) potassium channel (human, UniProt Q12809). The experiment in a line: primary screen, population patch clamp on CHO cells stably expressing hERG.
human ether-à-go-go-related gene (hERG) potassium channel, sequence (Q12809 whole entry, looked up): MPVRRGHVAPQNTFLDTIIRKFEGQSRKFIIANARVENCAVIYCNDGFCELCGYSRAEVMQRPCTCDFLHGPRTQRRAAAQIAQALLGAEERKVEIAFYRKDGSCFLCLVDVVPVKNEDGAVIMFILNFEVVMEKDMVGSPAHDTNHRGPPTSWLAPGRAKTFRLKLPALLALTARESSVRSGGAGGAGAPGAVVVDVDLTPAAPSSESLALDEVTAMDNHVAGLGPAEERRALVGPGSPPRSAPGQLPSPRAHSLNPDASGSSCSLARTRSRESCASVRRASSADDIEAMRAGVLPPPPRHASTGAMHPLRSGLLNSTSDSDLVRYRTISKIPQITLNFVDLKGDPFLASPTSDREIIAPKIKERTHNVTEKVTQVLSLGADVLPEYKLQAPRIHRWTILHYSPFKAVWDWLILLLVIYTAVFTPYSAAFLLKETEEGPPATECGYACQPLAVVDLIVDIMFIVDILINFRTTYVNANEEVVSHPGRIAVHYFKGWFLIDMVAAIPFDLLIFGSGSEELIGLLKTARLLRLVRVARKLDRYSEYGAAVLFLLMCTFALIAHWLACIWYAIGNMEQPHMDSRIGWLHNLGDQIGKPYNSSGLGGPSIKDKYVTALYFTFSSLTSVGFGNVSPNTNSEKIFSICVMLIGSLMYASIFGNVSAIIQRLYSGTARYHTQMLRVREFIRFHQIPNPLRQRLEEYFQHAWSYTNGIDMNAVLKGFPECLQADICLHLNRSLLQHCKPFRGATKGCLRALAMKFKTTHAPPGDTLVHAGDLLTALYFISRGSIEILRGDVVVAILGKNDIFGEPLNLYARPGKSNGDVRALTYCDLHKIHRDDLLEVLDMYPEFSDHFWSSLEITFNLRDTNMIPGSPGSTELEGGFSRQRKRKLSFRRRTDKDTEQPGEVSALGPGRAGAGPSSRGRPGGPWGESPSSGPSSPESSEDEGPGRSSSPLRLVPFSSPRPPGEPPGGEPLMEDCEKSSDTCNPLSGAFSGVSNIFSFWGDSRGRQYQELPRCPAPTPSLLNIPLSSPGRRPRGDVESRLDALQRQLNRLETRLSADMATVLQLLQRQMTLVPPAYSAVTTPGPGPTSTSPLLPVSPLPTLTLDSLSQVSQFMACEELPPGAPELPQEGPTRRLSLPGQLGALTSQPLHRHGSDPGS
As for `CC(=O)NNc1nc(-c2ccc(NC(C)=O)cc2)cs1`, the “hERG current change (%, negative = inhibition) at 10uM” value was found to be 16.2%. In the case of `CC(Oc1ccccc1)c1nnc(SCC(=O)NC2CC2)n1C` (centres unmarked), the “hERG current change (%, negative = inhibition) at 10uM” value is given as 10.5%. On to `CC1=C(C(=O)Nc2cc(C(=O)NCCC(C)C)ccc2C)SCCO1`, for which the “hERG current change (%, negative = inhibition) at 10uM” value is -52.4%. For `CCOP(=O)(c1ccccc1)C1(C#N)CCCC1` (centres unmarked), the “hERG current change (%, negative = inhibition) at 10uM” value stood at 15.2%. For the compound `CCn1cc(CNC(=O)C2CCC(=O)N(Cc3ccccc3F)C2)cn1` (centres unmarked), the “hERG current change (%, negative = inhibition) at 10uM” value is on record as 8.25%. As to `COc1ccc(OCCCCN(C)Cc2ccccc2)cc1.O=C(O)C(=O)O`, the “hERG current change (%, negative = inhibition) at 10uM” value was -45.7%.

For the compound `S=c1[nH]nc(-c2cc(-c3ccccc3)n[nH]2)n1/N=C/C=C/c1ccco1`, the “hERG current change (%, negative = inhibition) at 10uM” value turned out to be 18.6%. As for `O=C(NCc1ccccc1)N1CCN(c2ccc(F)cc2)CC1`, the “hERG current change (%, negative = inhibition) at 10uM” value is listed as -1.73%.

Take `Cc1cccc(NC(=O)COC(=O)c2ccccc2-c2nc3ccccc3s2)c1C`: the “hERG current change (%, negative = inhibition) at 10uM” value was -11%.

In the case of `CCc1ccc(NC(=O)c2sc3nc4n(c(=O)c3c2C)CCC4)cc1`, the “hERG current change (%, negative = inhibition) at 10uM” value is recorded as -18.7%. Consider `c1cncc(C(c2nnnn2C2CCCCC2)N2CCN3CCCC3C2)c1` (centres unmarked), for which the “hERG current change (%, negative = inhibition) at 10uM” value is -12%. With `CCc1ccc(/C=C2/SC(=S)N(CCCC(=O)Nc3ccccc3C(=O)O)C2=O)cc1` the figure was 2.43%. Regarding `COc1ccc(-c2oc3ccccc3c2C(=O)OCc2ccc(O)cc2)cc1`, the “hERG current change (%, negative = inhibition) at 10uM” value is recorded as -1.19%.

For the compound `C=CCOc1c(Cl)cc(C2NC(=O)NC(C)=C2C(=O)OC)cc1Cl` (centres unmarked), the “hERG current change (%, negative = inhibition) at 10uM” value is 2.26%. With `CC(=O)N1CC(=O)N(Cc2ccccc2)/C(=C/c2ccccc2)C1=O` the figure was 1.8%. With `O=c1cc(N2CCN(Cc3ccccc3)CC2)[nH]c(=O)n1-c1cccc(C(F)(F)F)c1` the figure was -3.51%; with `Cc1nn(C(C)C(=O)NCc2ccco2)c(=O)c2nn(-c3ccccc3)c(C)c12` (centres unmarked), -16.5%; with `CCOC(=O)C1CCCN(C(=O)C2CC(=O)N(c3ccc(C)cc3)C2)C1` (centres unmarked), -10.2%. For the compound `Cc1nc2ccc(NC(=O)C3CCN(S(=O)(=O)c4cccs4)CC3)cc2s1`, the “hERG current change (%, negative = inhibition) at 10uM” value is reported as -20.6%.

Take `CCCCNC(=O)N(O)C1N(CCCC)C(=O)N(CC(=O)OC)C1(C)C` (centres unmarked): the “hERG current change (%, negative = inhibition) at 10uM” value was determined as 20%.

With `COc1ccc(S(=O)(=O)N2CCN(C(=O)c3ccco3)CC2)c(C)c1C`, the “hERG current change (%, negative = inhibition) at 10uM” value is reported as -8.5%.

On to `CCOc1ccccc1/C=N/NC(=O)c1ccc(Cn2cc([N+](=O)[O-])cn2)o1`, for which the “hERG current change (%, negative = inhibition) at 10uM” value is -15.9%. Consider `Cc1ccccc1OCC(=O)O/N=C(\N)Cc1ccc(Cl)cc1`, for which the “hERG current change (%, negative = inhibition) at 10uM” value stood at 17.6%. On to `Cc1cccc(OCCCC(=O)NC2CCCCC2)c1`, for which the “hERG current change (%, negative = inhibition) at 10uM” value was 3.79%.

With `O=C(Nc1nc2ccc([N+](=O)[O-])cc2s1)c1ccncc1`, the “hERG current change (%, negative = inhibition) at 10uM” value is -0.912%. Take `COC(=O)c1ccc(C(=O)OC)c(NC(=O)CN(c2ccc3c(c2)OCO3)S(C)(=O)=O)c1`: the “hERG current change (%, negative = inhibition) at 10uM” value is on record as -21.1%. Consider `COC(=O)c1ccccc1S(=O)(=O)N(Cc1cc2cc3c(cc2[nH]c1=O)OCO3)C1CCCCC1`, for which the “hERG current change (%, negative = inhibition) at 10uM” value is on record as 11.6%.

With `CN1CCc2nc(SCc3ccccc3Br)c(C#N)cc2C1`, the “hERG current change (%, negative = inhibition) at 10uM” value was -28.2%. For `CS(=O)(=O)N1CCN(c2ccccc2NC(=O)c2cc3ccccc3o2)CC1`, the “hERG current change (%, negative = inhibition) at 10uM” value is reported as 7.78%. For the compound `O=C(Nc1ccc2c(c1)OCO2)C1CCCN(c2nc3ccccc3s2)C1` (centres unmarked), the “hERG current change (%, negative = inhibition) at 10uM” value is on record as -13.6%. For `Cc1ccc(NC(=O)c2noc3c2CCc2ccccc2-3)cc1`, the “hERG current change (%, negative = inhibition) at 10uM” value was 16.9%. As for `CCOc1ccccc1CN1C(=O)c2ccccc2C1C(=O)NC(C)CC` (centres unmarked), the “hERG current change (%, negative = inhibition) at 10uM” value is listed as 4.39%. With `Cc1cc(C)c(NS(=O)(=O)c2ccc(NC(=O)CCC(=O)O)cc2)c(C)c1`, the “hERG current change (%, negative = inhibition) at 10uM” value was found to be 18.6%. With `N#Cc1nc(COc2cccc(Cl)c2)oc1N1CCN(c2ccccc2)CC1` the figure was -4.18%; with `O=C(CCNc1cccc(Cl)c1)c1cccs1`, 6.19%; with `CC(=O)c1ccc(S(=O)(=O)NCCC(=O)OCC(=O)N2CCCC2=O)cc1`, -7.6%.

In the case of `Nc1cccnc1Sc1cc(Cl)c(Cl)cc1Cl`, the “hERG current change (%, negative = inhibition) at 10uM” value is 6.47%. Regarding `COCCCNC(=O)C1CCN(c2ccc(N3CCOCC3)nn2)CC1`, the “hERG current change (%, negative = inhibition) at 10uM” value was determined as 10.1%.

Turning to `CCn1cc(C(=O)NCCCOC(C)C)c(=O)c2cc(S(=O)(=O)N3CCC(C)CC3)ccc21`, the “hERG current change (%, negative = inhibition) at 10uM” value was -3.11%. Take `COc1cccc(OCc2cc(/C=N/NC(=O)c3nc(Cl)c(Cl)c(N)c3Cl)ccc2OC)c1`: the “hERG current change (%, negative = inhibition) at 10uM” value is reported as 13.8%. Consider `COc1ccc(Br)c(C(=O)OCC(=O)NC2CC2)c1`, for which the “hERG current change (%, negative = inhibition) at 10uM” value is listed as -2.09%. Take `Cc1ccc(C(=O)O)cc1NC(=O)CCc1ccccc1`: the “hERG current change (%, negative = inhibition) at 10uM” value amounted to 14.2%. Turning to `CN(C(=O)c1cc2c(s1)-c1ccccc1S(=O)(=O)C2)c1ccccc1`, the “hERG current change (%, negative = inhibition) at 10uM” value is given as -0.0159%.

Take `O=C(Nc1nnc(-c2ccc(F)cc2)o1)c1cc(Cl)sc1Cl`: the “hERG current change (%, negative = inhibition) at 10uM” value turned out to be 26.2%.

With `CC(CN1C(C)CCCC1C)OC(=O)c1ccccc1Br.Cl` (centres unmarked), the “hERG current change (%, negative = inhibition) at 10uM” value is recorded as -21.3%. Turning to `CCCCn1c(SCC(=O)N(C)C2CCS(=O)(=O)C2)nc2cc(S(N)(=O)=O)ccc21` (centres unmarked), the “hERG current change (%, negative = inhibition) at 10uM” value stood at 14.8%. Turning to `COc1ccc(-c2noc(-c3ccc(Br)o3)n2)cc1`, the “hERG current change (%, negative = inhibition) at 10uM” value stood at 17.2%. In the case of `Cc1cc(C)c(C#N)c(N2CCC(C(N)=O)CC2)n1`, the “hERG current change (%, negative = inhibition) at 10uM” value was determined as 11.1%. In the case of `CCN1CCN(C(=O)CCc2nnc(CCc3ccccc3OC)o2)[C@@H](C)C1=O`, the “hERG current change (%, negative = inhibition) at 10uM” value was 17%. `CCC(C)(C(=O)NC1CCCC1)N(C(=O)c1ccccn1)c1ccc(C)cc1` (centres unmarked): the “hERG current change (%, negative = inhibition) at 10uM” value stood at 8.12%. On to `Cn1c(CN2CCCC2)nc2cc(NC(=O)COc3ccc(Cl)cc3)ccc21`, for which the “hERG current change (%, negative = inhibition) at 10uM” value is -69.2%. Regarding `O=C(Nc1ccccc1)O/N=C/c1ccncc1`, the “hERG current change (%, negative = inhibition) at 10uM” value is 2.76%. Take `CCCOc1ccc(-c2nc(N3CCN(C)CC3)c3ccccc3n2)cc1`: the “hERG current change (%, negative = inhibition) at 10uM” value is -21.6%. Consider `COc1ccc(N(CCC(=O)O)S(=O)(=O)c2ccc(C)cc2C)cc1`, for which the “hERG current change (%, negative = inhibition) at 10uM” value was found to be 4.13%. For `Cc1ccc(NC(=O)Cn2nc(-c3ccccc3Cl)ccc2=O)c(Br)c1`, the “hERG current change (%, negative = inhibition) at 10uM” value is on record as -6.46%. With `Cc1ccc(NC(=O)C2=CCN(S(=O)(=O)c3ccc(F)cc3)CC2)cc1` the figure was 1.2%.
